Whole data set: some 81,000 sequences, median “one-hybrid fitness for binding parS DNA” near -0.17, cut for the highest 2% near 0.51. The list shows a part of the results.
B1: Caulobacter ParB omega fusion; a variant is named by its letters at X, in order, B8GW30 (parent)
chain: MESVVVGEPGMSEGRRGLGRGLSALLGEVDAAPAQAPGEQLGGSREAPIEILQRNPDQPRRTFREEDLEDLSNSIREKGVLQPILVRPSPDTAGEYQIVAGERAWRAAQRAGLKTVPIMVRELDDLAVLEIGIIENVQRADLNVLEEALSYKVLMEKFERTQENIAQTIGKSXSHVANXMRLLXLPDEVQSYLVSGELTAXHARAIAAAADPVALAKQIIEGGLSVRETEALARKAPNLSAGKSKGGRPPRVKDTDTQALESDLSSVLGLDVSIDHRGSTGTLTITYATLEQLDDLCNRLTRGI

Variants of: B1
Experiment: one-hybrid fitness for binding parS DNA (scaled: cognate 1, non-cognate 0); higher = stronger binding
Details: with parS DNA site
In short: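 Selection: bacterial one-hybrid in E. coli USO, HIS3 reporter with the site 19 bp from the promoter, 48 hours at 37°C on M9-minus-histidine plus 0.1 mM IPTG and 5 mM 3-AT. Libraries were Caulobacter ParB with four randomised specificity codons, sequenced on Illumina before and after selection. Fitness is the rescaled log change in variant-to-wild-type read ratio, anchored to the cognate and non-cognate sites.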

Q: For EFAT, which “one-hybrid fitness for binding parS DNA” value is on record?
A: ≤ 0.2

Q: PGME was tested. Which “one-hybrid fitness for binding parS DNA” value did it give?
A: ≤ 0.2

Q: For ISRH, which “one-hybrid fitness for binding parS DNA” value is on record?
A: ≤ 0.2

Q: How did the “one-hybrid fitness for binding parS DNA” value turn out when PMTS was run?
A: ≤ 0.2

Q: CMTT was tested. Which “one-hybrid fitness for binding parS DNA” value did it give?
A: ≤ 0.2

Q: HSQL was tested. Which “one-hybrid fitness for binding parS DNA” value did it give?
A: ≤ 0.2

Q: How did the “one-hybrid fitness for binding parS DNA” value turn out when HRSN was run?
A: ≤ 0.2

Q: Which “one-hybrid fitness for binding parS DNA” value does the source give for FPLS here?
A: ≤ 0.2

Q: Which “one-hybrid fitness for binding parS DNA” value does the source give for RAGC here?
A: 0.968

Q: For RDHK, which “one-hybrid fitness for binding parS DNA” value is on record?
A: ≤ 0.2

Q: For MGID, which “one-hybrid fitness for binding parS DNA” value is on record?
A: ≤ 0.2

Q: For TFIS, which “one-hybrid fitness for binding parS DNA” value is on record?
A: ≤ 0.2

Q: Which “one-hybrid fitness for binding parS DNA” value does the source give for RAES here?
A: 0.948

Q: With HYFN as the variant, how does the “one-hybrid fitness for binding parS DNA” value read?
A: ≤ 0.2

Q: Which “one-hybrid fitness for binding parS DNA” value does the source give for GYEP here?
A: ≤ 0.2

Q: How did the “one-hybrid fitness for binding parS DNA” value turn out when VVDR was run?
A: ≤ 0.2

Q: How did the “one-hybrid fitness for binding parS DNA” value turn out when VDKH was run?
A: ≤ 0.2

Q: RINW was tested. Which “one-hybrid fitness for binding parS DNA” value did it give?
A: 0.205

Q: DWKY was tested. Which “one-hybrid fitness for binding parS DNA” value did it give?
A: ≤ 0.2

Q: For SCGI, which “one-hybrid fitness for binding parS DNA” value is on record?
A: ≤ 0.2

Q: With YYNT as the variant, how does the “one-hybrid fitness for binding parS DNA” value read?
A: ≤ 0.2

Q: With PRGL as the variant, how does the “one-hybrid fitness for binding parS DNA” value read?
A: ≤ 0.2

Q: For IGRT, which “one-hybrid fitness for binding parS DNA” value is on record?
A: ≤ 0.2

Q: NAIM was tested. Which “one-hybrid fitness for binding parS DNA” value did it give?
A: ≤ 0.2

Q: How did the “one-hybrid fitness for binding parS DNA” value turn out when VTCK was run?
A: ≤ 0.2

Q: Which “one-hybrid fitness for binding parS DNA” value does the source give for QWTM here?
A: ≤ 0.2

Q: For SNGA, which “one-hybrid fitness for binding parS DNA” value is on record?
A: ≤ 0.2

Q: Which “one-hybrid fitness for binding parS DNA” value does the source give for DFHC here?
A: ≤ 0.2

Q: How did the “one-hybrid fitness for binding parS DNA” value turn out when WDRG was run?
A: ≤ 0.2

Q: Which “one-hybrid fitness for binding parS DNA” value does the source give for AHPQ here?
A: ≤ 0.2

Q: For YIYR, which “one-hybrid fitness for binding parS DNA” value is on record?
A: ≤ 0.2

Q: For YVSS, which “one-hybrid fitness for binding parS DNA” value is on record?
A: ≤ 0.2

Q: How did the “one-hybrid fitness for binding parS DNA” value turn out when YISW was run?
A: ≤ 0.2

Q: With SNNL as the variant, how does the “one-hybrid fitness for binding parS DNA” value read?
A: ≤ 0.2

Q: How did the “one-hybrid fitness for binding parS DNA” value turn out when RNNW was run?
A: ≤ 0.2

Q: For ARRQ, which “one-hybrid fitness for binding parS DNA” value is on record?
A: ≤ 0.2

Q: With KTKW as the variant, how does the “one-hybrid fitness for binding parS DNA” value read?
A: ≤ 0.2

Q: Which “one-hybrid fitness for binding parS DNA” value does the source give for SDPL here?
A: ≤ 0.2

Q: With PETA as the variant, how does the “one-hybrid fitness for binding parS DNA” value read?
A: ≤ 0.2

Q: How did the “one-hybrid fitness for binding parS DNA” value turn out when KNDG was run?
A: ≤ 0.2

Q: With CTNA as the variant, how does the “one-hybrid fitness for binding parS DNA” value read?
A: ≤ 0.2

Q: How did the “one-hybrid fitness for binding parS DNA” value turn out when IMHC was run?
A: ≤ 0.2

Q: With EKSD as the variant, how does the “one-hybrid fitness for binding parS DNA” value read?
A: ≤ 0.2

Q: How did the “one-hybrid fitness for binding parS DNA” value turn out when QSFY was run?
A: ≤ 0.2

Q: KIRY was tested. Which “one-hybrid fitness for binding parS DNA” value did it give?
A: ≤ 0.2

Q: SMRT was tested. Which “one-hybrid fitness for binding parS DNA” value did it give?
A: ≤ 0.2

Q: Which “one-hybrid fitness for binding parS DNA” value does the source give for MSVG here?
A: ≤ 0.2

Q: How did the “one-hybrid fitness for binding parS DNA” value turn out when RRFG was run?
A: 0.831

Q: For QNCN, which “one-hybrid fitness for binding parS DNA” value is on record?
A: ≤ 0.2

Q: Which “one-hybrid fitness for binding parS DNA” value does the source give for GIVG here?
A: ≤ 0.2

Q: How did the “one-hybrid fitness for binding parS DNA” value turn out when PQND was run?
A: ≤ 0.2

Q: For EFRY, which “one-hybrid fitness for binding parS DNA” value is on record?
A: ≤ 0.2

Q: With QQDK as the variant, how does the “one-hybrid fitness for binding parS DNA” value read?
A: ≤ 0.2

Q: For GHQR, which “one-hybrid fitness for binding parS DNA” value is on record?
A: ≤ 0.2

Q: YALC was tested. Which “one-hybrid fitness for binding parS DNA” value did it give?
A: ≤ 0.2

Q: For NALA, which “one-hybrid fitness for binding parS DNA” value is on record?
A: ≤ 0.2

Q: Which “one-hybrid fitness for binding parS DNA” value does the source give for MPRS here?
A: ≤ 0.2

Q: With ASAS as the variant, how does the “one-hybrid fitness for binding parS DNA” value read?
A: ≤ 0.2

Q: How did the “one-hybrid fitness for binding parS DNA” value turn out when LLAI was run?
A: ≤ 0.2

Q: For PQWG, which “one-hybrid fitness for binding parS DNA” value is on record?
A: ≤ 0.2

Q: How did the “one-hybrid fitness for binding parS DNA” value turn out when LCVN was run?
A: ≤ 0.2

Q: YVET was tested. Which “one-hybrid fitness for binding parS DNA” value did it give?
A: ≤ 0.2

Q: Which “one-hybrid fitness for binding parS DNA” value does the source give for VANS here?
A: ≤ 0.2

Q: Which “one-hybrid fitness for binding parS DNA” value does the source give for RVAF here?
A: 0.259

Q: Which “one-hybrid fitness for binding parS DNA” value does the source give for RHKK here?
A: ≤ 0.2

Q: HKNP was tested. Which “one-hybrid fitness for binding parS DNA” value did it give?
A: ≤ 0.2

Q: How did the “one-hybrid fitness for binding parS DNA” value turn out when RNCG was run?
A: 0.771

Q: How did the “one-hybrid fitness for binding parS DNA” value turn out when ALPE was run?
A: ≤ 0.2

Q: With SEDR as the variant, how does the “one-hybrid fitness for binding parS DNA” value read?
A: ≤ 0.2

Q: For QSEY, which “one-hybrid fitness for binding parS DNA” value is on record?
A: ≤ 0.2

Q: For RTPH, which “one-hybrid fitness for binding parS DNA” value is on record?
A: ≤ 0.2

Q: TRLL was tested. Which “one-hybrid fitness for binding parS DNA” value did it give?
A: ≤ 0.2

Q: For LKNF, which “one-hybrid fitness for binding parS DNA” value is on record?
A: ≤ 0.2

Q: TNYM was tested. Which “one-hybrid fitness for binding parS DNA” value did it give?
A: ≤ 0.2

Q: SIVT was tested. Which “one-hybrid fitness for binding parS DNA” value did it give?
A: ≤ 0.2

Q: With YVFT as the variant, how does the “one-hybrid fitness for binding parS DNA” value read?
A: ≤ 0.2

Q: Which “one-hybrid fitness for binding parS DNA” value does the source give for VAER here?
A: ≤ 0.2
